We go through 46 molecules from article PMC4336329 (PLoS ONE, 2015).

Screen size: about 310,000 compounds; about 2,200 (0.71%) showed an effect of 50% or more. Effects have a minus sign here. The list shows a part of the results.

This test deals with human ether-à-go-go-related gene (hERG) potassium channel (human, UniProt Q12809). Put plainly: primary screen, population patch clamp on CHO cells stably expressing hERG.
Sequence of human ether-à-go-go-related gene (hERG) potassium channel (Q12809 whole entry, looked up): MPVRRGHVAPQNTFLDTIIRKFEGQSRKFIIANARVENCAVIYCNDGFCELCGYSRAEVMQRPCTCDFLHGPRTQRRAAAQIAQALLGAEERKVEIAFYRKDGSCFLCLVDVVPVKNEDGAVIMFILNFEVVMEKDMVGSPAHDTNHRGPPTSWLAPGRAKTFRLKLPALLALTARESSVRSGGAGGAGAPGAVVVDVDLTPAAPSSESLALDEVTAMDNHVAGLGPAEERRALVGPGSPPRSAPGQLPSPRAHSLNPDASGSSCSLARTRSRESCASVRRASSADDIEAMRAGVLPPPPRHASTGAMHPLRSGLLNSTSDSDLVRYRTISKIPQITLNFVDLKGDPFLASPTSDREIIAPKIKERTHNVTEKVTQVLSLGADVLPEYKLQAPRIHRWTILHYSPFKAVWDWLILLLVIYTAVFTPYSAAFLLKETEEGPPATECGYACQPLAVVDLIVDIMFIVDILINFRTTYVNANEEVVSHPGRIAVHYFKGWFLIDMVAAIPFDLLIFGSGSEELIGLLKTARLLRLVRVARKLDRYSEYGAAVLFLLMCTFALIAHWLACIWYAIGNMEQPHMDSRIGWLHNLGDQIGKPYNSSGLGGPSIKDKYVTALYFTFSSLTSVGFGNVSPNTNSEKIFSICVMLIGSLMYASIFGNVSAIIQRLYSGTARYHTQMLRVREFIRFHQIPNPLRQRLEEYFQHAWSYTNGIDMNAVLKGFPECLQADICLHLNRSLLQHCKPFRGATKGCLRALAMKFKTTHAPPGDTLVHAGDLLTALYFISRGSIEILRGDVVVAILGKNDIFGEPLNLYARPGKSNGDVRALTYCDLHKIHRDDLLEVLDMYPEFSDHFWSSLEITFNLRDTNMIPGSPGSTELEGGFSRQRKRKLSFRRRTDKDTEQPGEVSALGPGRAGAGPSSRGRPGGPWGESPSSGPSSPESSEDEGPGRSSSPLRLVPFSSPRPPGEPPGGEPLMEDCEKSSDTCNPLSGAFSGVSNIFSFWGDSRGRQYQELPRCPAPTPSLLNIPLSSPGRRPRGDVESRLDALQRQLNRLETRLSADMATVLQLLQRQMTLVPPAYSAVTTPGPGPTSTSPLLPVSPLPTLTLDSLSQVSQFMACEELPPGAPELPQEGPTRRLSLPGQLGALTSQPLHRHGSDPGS
In the case of `CC(C)C[C@H](NC(=O)c1[nH]cnc1C(=O)N[C@@H](C)c1ccccc1)C(=O)OCc1ccccc1`, the “hERG current change (%, negative = inhibition) at 1uM” value is given as 17.3%. As to `CNC(=O)ON(C(=O)NC)C1N(C)C(=S)SC1(C)C` (stereo not shown), the “hERG current change (%, negative = inhibition) at 1uM” value is recorded as 0.943%.

Consider `O=C(c1ccco1)N(Cc1ccc(Cl)cc1)Cc1ccco1`, for which the “hERG current change (%, negative = inhibition) at 1uM” value was found to be 5.4%. The value for `Cc1[nH]n(-c2ccccc2)c(=O)c1C=NCC1CCCO1` (stereo not shown) was 12.2%. `Cc1ccc(NC(=O)N2CCN(C/C=C/c3ccccc3)CC2)cc1`: the “hERG current change (%, negative = inhibition) at 1uM” value is given as -10.7%. With `CC(O)[C@H]1CNCCN1CCc1cccc2ccccc12` (stereo partly shown), the “hERG current change (%, negative = inhibition) at 1uM” value worked out at 5.81%. The value for `CC1CCN(S(=O)(=O)c2ccc(NC(=O)CSc3nnnn3C)cc2)CC1` was 2.79%; that for `O=C(Nc1nnc(Cc2ccccc2F)s1)c1ccccc1Cl` was 16.8%. The value for `Cc1cc(C)nc(SCC(=O)c2cc3ccccc3oc2=O)n1` was -0.0354%; that for `CN(C)C(=O)COc1ccc2c(-c3ccccc3)cc(=O)oc2c1` was 14.7%. For `CCCCOc1ccc(C(=O)NCCOc2cccc(OC)c2)cc1`, the “hERG current change (%, negative = inhibition) at 1uM” value came to 9.19%. The value for `CN(C)S(=O)(=O)c1ccc(NC(=O)CCNC(=O)c2ccco2)cc1` was 15.4%. Turning to `Cc1ccc(C2OC(=O)c3ccccc32)cc1` (stereo not shown), the “hERG current change (%, negative = inhibition) at 1uM” value was determined as 2.46%. As to `CS(=O)(=O)N1CC2CCCN2c2cc(C(F)(F)F)ccc21` (stereo not shown), the “hERG current change (%, negative = inhibition) at 1uM” value stood at 11.7%.

For the molecule `CCn1c(COc2c(C)cccc2C)nnc1SCC(=O)N1CCN(c2ccccc2)CC1`, the “hERG current change (%, negative = inhibition) at 1uM” value is listed as 0.756%.

On to `COc1ccc(CN=C(NS(=O)(=O)c2cccs2)SC)cc1`, for which the “hERG current change (%, negative = inhibition) at 1uM” value is 2.29%. `COc1ccc(CCNC(=O)COC(=O)C2CC2C)cc1OC` (stereo not shown): the “hERG current change (%, negative = inhibition) at 1uM” value turned out to be 11.1%. The value for `COc1cccc(C=NCCNC(=O)c2nonc2N)c1O` was 11.4%.

As to `COc1cc(C(=O)N/N=C/c2ccc(OC(=O)c3ccccc3Cl)c(OC)c2)ccc1O`, the “hERG current change (%, negative = inhibition) at 1uM” value stood at 12.8%.

With `O=C(Nc1nccs1)c1cn(-c2ccccc2)nc1-c1ccccc1`, the “hERG current change (%, negative = inhibition) at 1uM” value is recorded as -3.21%. Take `Br.CC(=O)Nc1ccc(-c2csc(N/N=C(/C)c3ccccc3)n2)cc1`: the “hERG current change (%, negative = inhibition) at 1uM” value stood at 12.4%. Take `CCn1c(=O)c(C(=O)CN2CCN(Cc3ccc4c(c3)OCO4)CC2)c(N)n(Cc2ccccc2)c1=O`: the “hERG current change (%, negative = inhibition) at 1uM” value was -67.4%.

In the case of `Cc1ccc(-c2csc(NC(=O)CSc3nc(C)cc(=O)[nH]3)n2)cc1`, the “hERG current change (%, negative = inhibition) at 1uM” value came out at 7.59%.

In the case of `CC(C)NC(=O)C(OC(=O)c1ccccc1)C(OC(=O)c1ccccc1)C(=O)O` (stereo not shown), the “hERG current change (%, negative = inhibition) at 1uM” value is listed as 8.39%. In the case of `CC(C)C(c1nnnn1Cc1ccco1)N1CCC(C(N)=O)CC1` (stereo not shown), the “hERG current change (%, negative = inhibition) at 1uM” value is 9.29%. As for `O=C(C#Cc1ccccc1)Nc1cccc(F)c1`, the “hERG current change (%, negative = inhibition) at 1uM” value is listed as 7.19%. The value for `CCCc1cc(=O)[nH]c(SCC)n1` was 6.87%. `O=C(Cc1cccs1)N1CCN(c2nc(-c3ccc(Cl)cc3)cs2)CC1`: the “hERG current change (%, negative = inhibition) at 1uM” value is reported as -6.46%. The value for `CN(c1ccccc1C(=O)NCc1ccco1)S(C)(=O)=O` was 14.3%. The value for `COc1cc(Cl)c(C)cc1N1C(=O)CN(Cc2ccccc2)C1=S` was 11.8%. `CC(C)C[C@H](NC(=O)C1CC(=O)N(c2ccc(F)cc2)C1)C(=O)N1CCCCC1` (stereo partly shown): the “hERG current change (%, negative = inhibition) at 1uM” value was 3.74%. As to `Cc1cc(=O)oc2cc(OCC(=O)Nc3nnc(C4CC4)s3)ccc12`, the “hERG current change (%, negative = inhibition) at 1uM” value is listed as 7.3%. `CC(=O)c1ccc(-c2ccc(C(=O)NC3CCCCCC3)o2)cc1`: the “hERG current change (%, negative = inhibition) at 1uM” value was 29.5%.

In the case of `Nc1nnc(SCc2ccc(F)cc2Cl)s1`, the “hERG current change (%, negative = inhibition) at 1uM” value was 5.16%. The value for `CC1CCN(C(=O)CN2C(=O)C(C)(C)Oc3ccc(C(=O)NC4CCCC4)cc32)CC1` was 8.66%; that for `O=c1[nH]c(=O)n(C2CCCCC2)c(O)c1/C=C/C=Nc1ccccc1` was 12.4%; that for `CC1(C)CC(=O)C(C(c2ccc(Br)cc2)C2C(=O)CC(C)(C)CC2=O)C(=O)C1` was 10.5%. The value for `CC1CCN(CC(O)Cn2c3ccccc3c3ccccc32)CC1` (stereo not shown) was 8.86%; that for `COc1c2ccccc2c(OC)c2ccccc12` was 6.1%; that for `Cc1ccc(C2C(=O)c3ccccc3C2=O)cc1` was 11.2%. With `O=C(COC(=O)Cc1ccccc1)Nc1cccnc1Cl`, the “hERG current change (%, negative = inhibition) at 1uM” value was 6.4%. Consider `COc1cc(C(=S)N2CCOCC2)ccc1OC(=O)c1cccc(C)c1`, for which the “hERG current change (%, negative = inhibition) at 1uM” value is reported as 8.75%. With `Cc1cc(C(=O)NNC(=O)c2sccc2C)c(C)o1`, the “hERG current change (%, negative = inhibition) at 1uM” value came out at 14.2%. On to `COC(=O)N1C(=O)[C@](c2ccccc2)(C2CCCCC2)N1C(=O)OC`, for which the “hERG current change (%, negative = inhibition) at 1uM” value was 10.6%. Regarding `COCCn1c(SCC(=O)Nc2ccccc2C)nc2c(oc3ccccc32)c1=O`, the “hERG current change (%, negative = inhibition) at 1uM” value stood at 10.3%. With `CC1CCCN(S(=O)(=O)c2cnc[nH]2)C1` (stereo not shown), the “hERG current change (%, negative = inhibition) at 1uM” value is reported as 16.6%.
